Measured values reported in PubChem BioAssay (NCI).
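How tested: cells in 96-well plates exposed to compound for 48 hours at five concentrations. GI50 marks 50% less growth. At the TGI there is no net growth.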

test system: NCI-H322M lung; test: NCI anticancer screen, dose series, 48 h

Q: Which results are given for O=C(NC1CCC(Br)CC1)C1CCCC(S(=O)(=O)NC2CCCCC2)C1 (stereo unspecified)?
A: GI50: 15.8 µM; TGI: 49.4 µM

Q: Which TGI does the source give for CN(C)CCNC(=O)c1cc([N+](=O)[O-])cn1C here?
A: > 100 µM

Q: Which TGI does the source give for COc1cc(CCCl)c(CC2=NCCc3cc(OC)c(OC)cc32)cc1OC here?
A: > 100 µM

Q: How did the TGI turn out when C=CCCC1CCCCC/C1=N\N(C)C (stereo unspecified) was run?
A: > 100 µM

Q: For CC1=C(O)C(=O)C2C(=O)C1C(C)C2c1ccc(C)cc1 (stereo unspecified), which TGI is on record?
A: > 100 µM

Q: For CCOc1ccc(NC(=O)/C(=N\N)C(C(=O)OC)c2nc3ccc(Cl)cc3[nH]c2=O)cc1 (stereo unspecified), which TGI is on record?
A: > 100 µM

Q: For CSc1nc(=Nc2ccccc2)sn1-c1ccccc1, which TGI is on record?
A: > 100 µM

Q: Which TGI does the source give for COC(=O)[C@]12CC[C@H]3CN(C(=O)OCc4ccccc4)[C@H]([C@H]31)[C@H](C(=O)OCC[Si](C)(C)C)N2S(=O)(=O)c1ccc(C)cc1 here?
A: > 100 µM

Q: With CCCCCCCC/C=C\CCCCCCC/C=C1/C[C@](/C=C/C(=O)OC)(CO)OC1=O as the compound, how does the TGI read?
A: 30.5 µM

Q: For CO/C(N)=C(\C#N)N=Cc1cccnc1, which TGI is on record?
A: > 100 µM

Q: For CN(C)CCNC(=O)c1cnn(C)c1[N+](=O)[O-], which TGI is on record?
A: > 100 µM

Q: CC(C)(C)c1ccc2c(c1)C(=O)c1ccccc1C2=O was tested. Which TGI did it give?
A: > 100 µM

Q: With ClC1=C(Cl)C(Cl)=C(Cl)C1=Cc1ccccc1 as the compound, how does the GI50 read?
A: 1.64 µM

Q: And the TGI?
A: 3.57 µM

Q: For O=C1c2ccc3cc(CCl)cc(O)c3c2C(=O)c2cccc(O)c21, which TGI is on record?
A: > 10 µM

Q: O=S(=O)(c1ccccc1)C1CN2OC1(S(=O)(=O)c1ccccc1)CC21CCCCC1 (stereo unspecified) was tested. Which TGI did it give?
A: > 100 µM

Q: How did the TGI turn out when CCOCCOc1ccc(OCCOCC)cc1 was run?
A: > 100 µM

Q: CCC1([N+](=O)[O-])CC2C=CC1C2 (stereo unspecified) was tested. Which TGI did it give?
A: > 100 µM

Q: For COc1ccc2[nH]c(C(O)(Cc3cccnc3)Cc3cccnc3)cc2c1, which TGI is on record?
A: > 100 µM

Q: For CCCCn1c(C)c(C(=O)CC)c(C(=O)NCCN2CCN(c3ccccc3Cl)CC2)c1C, which TGI is on record?
A: 32.4 µM

Q: CCOC(=O)/C=C(/OCC)[C@@H]1C(C(=O)c2ccc(Cl)cc2)[C@H]1/C(=C\C(=O)OCC)OCC (stereo partly specified) was tested. Which TGI did it give?
A: > 100 µM

Q: How did the TGI turn out when CCNC(=S)NNC(=O)c1csc(NC(=S)NC2CCCCC2)n1 was run?
A: 47.5 µM

Q: For CC1(C)C(=NN=C(N)N)C(C)(C)C1=NN=C(N)N, which TGI is on record?
A: > 100 µM

Q: CCOC(=O)N1C(=O)C2C3C=CC(C2C1=O)C1C2C(=O)N(C(=O)OCC)C(=O)C2C31 (stereo unspecified) was tested. Which TGI did it give?
A: > 100 µM

Q: Which TGI does the source give for CCOC(=O)c1c(-c2ccccc2)oc(=O)c(Cc2cccc3cccnc23)c1-c1ccccc1 here?
A: > 10 µM

Q: With Cc1ccc(Nc2nc(C)c(C(=O)CC(=O)C(=O)Nc3c(C)cccc3C(C)(C)C)s2)cc1 as the compound, how does the TGI read?
A: > 100 µM

Q: With Cc1cccc(NC2=C(Cl)C(=O)N(Cc3ccc(Cl)cc3)C2=O)c1 as the compound, how does the GI50 read?
A: 10 µM

Q: And the TGI?
A: 36.5 µM

Q: How did the TGI turn out when CC(=O)NC1=C(C)C(=O)c2c(nc3n2CCC3OC(=O)CCl)C1=O (stereo unspecified) was run?
A: 31.1 µM

Q: For CC(C)(C)OC(=O)NCCCCCCC(=O)Cc1ccccc1, which TGI is on record?
A: > 100 µM

Q: With Cc1c2nc3ccccc3sc-2cc(=O)c1C as the compound, how does the TGI read?
A: > 100 µM

Q: With CCC(CN(C)C)C(=O)c1ccco1 (stereo unspecified) as the compound, how does the TGI read?
A: > 100 µM

Q: Which GI50 does the source give for COc1ccc(CN2C(=O)C(Cl)=C(Nc3cccc(O)c3)C2=O)cc1 here?
A: 7.56 µM

Q: What about the TGI of the same compound?
A: 21.9 µM

Q: How did the TGI turn out when C=C1C/C(=C/C)C(=O)O[C@@H]2CCN3CC=C(COC(=O)[C@]1(C)O)[C@H]23 was run?
A: > 100 µM

Q: For O=S(=O)(O)c1ccc(N=Nc2ccc(N=Nc3c(O)c(S(=O)(=O)O)cc4cc(S(=O)(=O)O)ccc34)cc2)cc1, which TGI is on record?
A: > 100 µM

Q: With CSc1nc(SC)c2cnn(CC3CO3)c2n1 (stereo unspecified) as the compound, how does the TGI read?
A: > 83.4 µM

Q: Cc1ccc(S(=O)(=O)NCCN(CCNS(=O)(=O)c2ccc(C)cc2)S(=O)(=O)c2ccc(C)cc2)cc1 was tested. Which TGI did it give?
A: > 100 µM

Q: How did the TGI turn out when COc1ccccc1-n1c(C)nc2ccccc2c1=O was run?
A: > 100 µM

Q: With Cn1cc(C2=C(c3c4n(c5ccccc35)CCN(C(N)=S)C4)C(=O)NC2=O)c2ccccc21 as the compound, how does the GI50 read?
A: 10.9 µM

Q: And the TGI?
A: > 25 µM

Q: Which GI50 does the source give for COc1cc(NC(=O)c2ccc(C(F)(F)F)nc2Nc2ccc(Cl)cc2C)cc(OC)c1OC here?
A: 11.5 µM

Q: What about the TGI of the same compound?
A: 65.8 µM

Q: Clc1ccc(C2=NOC(C3CCCCC3)C2)cc1 (stereo unspecified) was tested. Which TGI did it give?
A: > 100 µM

Q: How did the TGI turn out when O=C1C(=O)c2ccccc2C(O)=C1Cc1ccccc1 was run?
A: > 100 µM

Q: COc1cccc(CC(C)N)c1 (stereo unspecified) was tested. Which TGI did it give?
A: > 100 µM

Q: How did the TGI turn out when Cc1oc2c(c1C)S(=O)(=O)C(C#N)=CN2 was run?
A: > 100 µM

Q: How did the GI50 turn out when COc1cc2c(cc1OCCCNC(=O)/C=C1/C[C@H]3C=Nc4cc(OCc5ccccc5)c(OC)cc4C(=O)N3C1)NC(=O)[C@@H]1CCCN1C2=O was run?
A: > 100 µM

Q: What about the TGI of the same compound?
A: > 100 µM

Q: With COC(=O)CSC1CC(=O)c2c(Cl)sc(Cl)c21 (stereo unspecified) as the compound, how does the TGI read?
A: > 100 µM

Q: Which results are given for CCN(CC)c1ccc2c(cc1=O)[C@@H](NC(C)=O)CCc1cc(OC)c(OC)c(OC)c1-2?
A: GI50: 0.614 µM; TGI: > 100 µM

Q: Which TGI does the source give for O=C1OC(c2ccccc2)=N/C1=C\c1ccc(F)cc1 here?
A: > 100 µM

Q: For COc1cc(NC(=O)c2ccc(C(F)(F)F)nc2Nc2cc(Cl)ccc2C)cc(OC)c1OC, which GI50 is on record?
A: 14.1 µM

Q: And the TGI?
A: 76.4 µM

Q: COc1cc2c(cc1OC)[Se]c1cc(OC)c(OC)cc1[Se]2 was tested. Which GI50 did it give?
A: > 100 µM

Q: What about the TGI of the same compound?
A: > 100 µM

Q: With COc1ccccc1-c1cc(=O)c2ccccc2n1C1CC1 as the compound, how does the TGI read?
A: 4.53 µM

Q: Which TGI does the source give for COc1cccc2c1C(=O)c1c(O)c3c(c(O)c1C2=O)CC(O)(C(=O)CO)CC3OC1CC(N)C(I)C(C)O1 (stereo unspecified) here?
A: > 100 µM

Q: CCOC(=O)Cn1nc2ccc(Nc3c(C)[n+]([O-])c4cc(F)c(OCC)cc4[n+]3[O-])cc2n1 was tested. Which TGI did it give?
A: > 100 µM
